The supplement of paper PMC11417369
This is one part of the list.

tested on: PfAP2-HC AP2 domain (GST-tagged); test: gcPBM binding intensity (ln(normalized median fluorescence intensity)); higher = stronger DNA binding
How it was run: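 In this array assay, P. falciparum DNA-binding domains with a GST tag, expressed in E. coli, were applied for 1 h to primer-extended double-stranded 36-bp intergenic genomic probes and negative controls on an Agilent 4 × 180k array. Bound protein was visualised with Alexa488 anti-GST antibody at 488 nm. Binding intensity is the highest Masliner-normalised natural-log median intensity across replicate spots of either probe orientation.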

Sequence | gcPBM binding intensity (ln)
TTTTCGTAACTGATTCAACACACAAAAGGGGGAAAA [CACACA_site8517] | 9.77
AATATATAGCTAAAAACACACAAATATATACACATA [CACACA_site9203] | 9.97
TATTTTATTATTATTATTAGTATGATTTCTTTATAG [CACACA_negctrl_site550] | 9.5
GGATAGGCATAACATAGTACGTACAAATATATATAT [XGTACX_site454] | 9.74
ATAAAAAAAAAAACAGTAAAATTATAATTATAATTA [TGCATGCA_negctrl_site356] | 9.59
TTAACAAATAAACACACACACACACCCAAAAAAAAA [CACACA_site8068] | 11.1
AAAAGCACAAAAAATACACACACAAAAAATAAAAAA [CACACA_site8545] | 10.2
TAATGATAAATACATACACACAAAAAATGATATATA [CACACA_site7258] | 9.95
TATATCCCTTAGAATACACACCCATATGAGTGTGAA [CACACA_site8965] | 9.48
AATGTAAAATCTTCATATACATTTAAGTCTGTATTT [TGCATGCA_negctrl_site183] | 9.74
ACAAAAATTAAATAAAGTACATTTTTAAAATACGTA [XGTACX_site3880] | 9.64
AGCTGAAAAAAAAGCTTGCACACGTATTTGCTTTAT [CACACA_site1512] | 9.81
CATATTATATTCTGCTTACACACATATATATATATA [CACACA_site3059] | 9.9
TTTTTTTGTTATATCCTGCACTTCTTAACTATATTA [GTGCAC_site9807] | 9.83
AATAATAAGAATAACGCATGCACATATAATATAGAA [TGCATGCA_site3] | 10
AATATGTAGTAATCAAGTACTAATGTCTTAATTCGG [XGTACX_site308] | 9.58
GTTTTTTATATAAGGTGGTCAACATTGTAATGTTAA [XGTACX_site3204] | 9.54
ATATAAATTGGCAATAGTACATAAAGGCATAGAAAG [XGTACX_site2674] | 9.87
GTATATATGTATATGTGTACACATATTCTTAACTCA [XGTACX_site309] | 10.2
AAATTACACATCCATACACACATATTTTTTTTAATT [CACACA_site5242] | 10
AATAATAGAAGCACCCACCCACCACCACCCACACAT [CACACA_negctrl_site1033] | 10.9
GAGAAACTTGTTTAAACATGCACAAAAAAAAAAAAA [TGCATGCA_site340] | 9.35

Sequence | gcPBM binding intensity (ln)
TATAAAATAAATTGTGCACACATATTTATAAATATG [CACACA_site2330] | 9.99
TATATGGAAAATTAAAGTACTAAAGAATAAATAGAA [XGTACX_site8796] | 9.73
TATAGATACATATACACACACACACCGACATATATA [CACACA_site9138] | 10.8
GTAGTTACATATAGGGTGCTCCAATAGTTGACCTCG | 9.53
AAATAAAAAAAGGGAACATGCAATATGTACAAATAT [TGCATGCA_site869] | 9.89
TCATAGGTTCAAAAGGGTACATTAATACATACATAT [XGTACX_site2236] | 9.74
AGCATTTTTCATTTTGCACACATGTTTTATGGGTAT [CACACA_site5839] | 10.1
CATATATATTGATATGCACACCTATGTATTGATGTA [CACACA_site8269] | 9.88
TCTTTTTTCTTTTTTTCACACATTATTTTTTAAATA [CACACA_site5197] | 9.71
ACGATGAATATGTAAAGTACGCAAATGTAACAATAT [XGTACX_site728] | 9.91
AGCTTCATATTATGGAGTACTATTAAAAATAAATAA [XGTACX_site2649] | 9.29
AAATATAACATCATCACACACATATACTTTATATGC [CACACA_site1126] | 10.7
TAATTAGATTATTTTTGTACATATTATTATAGGTTA [XGTACX_site2077] | 9.57
AGATATTATAAAATATGTACATATATATATATATAT [XGTACX_site2088] | 9.66
AAAGTAATAATGATTTGTACATATATATATATATAT [XGTACX_site8821] | 9.7
TTATCTTTTTTCGTTTGTACGTAACCATATTACTAT [XGTACX_site8853] | 9.85
ATTTTTTATGTTAATGCATGCTCATGTGTATTTCAT [TGCATGCA_site751] | 9.86
ATGCAAATGTGCATCACACACACTAATGGGTATGTA [CACACA_site2893] | 9.85
GGAATATATATACATACACACATATATATATATATA [CACACA_site1666] | 10
AAAAATAATTATTCGTGTACAAAAAAAAAAATATAA [XGTACX_site439] | 9.73
AAAAAAAAAAAAAAAAGTACAAGCATTGCGTTTTAA [XGTACX_site6075] | 9.38
AGAAAAAAAAAAAAAAAAATATATATATATATATAT [TGCATGCA_negctrl_site411] | 9.31

Sequence | gcPBM binding intensity (ln)
AAAAAAAAAAAAAAAACACACATACACGCACGCACA [CACACA_site7569] | 10.8
GTATATATATACCATTGTACTTTCGTAAAAATATTT [XGTACX_site4846] | 9.58
TTTTATTATAATAATTGTACAAAAATTATTTAATAT [XGTACX_site6054] | 9.37
TTAATTTATTATCTTTGTACACAATTAAAAAAAAAA [XGTACX_site3469] | 9.29
ATAAATATACATTATACCGACCATGTGGATATTATA [XGTACX_negctrl_site241] | 9.62
TTATTTTTATATTTTAATTTTAAAAAAATTTTAATT [CACACA_negctrl_site777] | 9.3
ATTATACATATTATATGTACATATATAAATAAATAA [XGTACX_site7076] | 9.71
TTTTGGTTTTGTTCTACACACATAAAAAAAAAAAAG [CACACA_site2276] | 9.45
ATATATCAATATGGAATATATATATATATATATATA [TGCATGCA_negctrl_site502] | 9.4
TTTCTATTTATTAATACATGCAAAATAAAGTAAAGT [TGCATGCA_site209] | 9.64
TATATATATATATATATATTTATGTATTTATTTAAT [TGCATGCA_negctrl_site179] | 9.38
ATATATATAAATAAATGTACATAAATAATATATTAT [XGTACX_site5419] | 9.8
TATTGTATATAATAAACACACAATATTAAAAATATA [CACACA_site1057] | 9.75
TATTTAAAAAACACATGTACGAGTATTATATATAAA [XGTACX_site6654] | 9.55
AGTATATTAAAAAATACACACGTATTATATCTACAT [CACACA_site8844] | 9.92
GTTCATAAATTAAACACACACACACCGCTGGATACC [CACACA_site5779] | 10.3
TAATATACTTAATACACACACGAATATTTATAAATA [CACACA_site6675] | 9.94
GATTCATCTAAACACCGTACATATTATATATATATA [XGTACX_site6030] | 9.65
CCCCTCGAAATAATTTGTACGAATATATTGTCTGTA [XGTACX_site8308] | 9.68
AAACTCAACTTATATACACACAATCTTTTTTTTTTA [CACACA_site29] | 9.81
ATTGGAAAATATGTTATATATATATATATATATATG [CACACA_negctrl_site116] | 9.52
TTAATTCGTACATACACACGCACATATATATATATA [CACACA_site1469] | 10.2

Sequence | gcPBM binding intensity (ln)
AATAATAATAGAAACACACACACATCTTTAATAATA [CACACA_site4805] | 10.5
ATATTTTTTTTCTACACACATACAAATATATATTAT [CACACA_site2359] | 10
ATATTAAAATACAGTGCATGTTAAAAATATATTATA [TGCATGCA_site977] | 9.7
TTATAACATCTTAAATGTACAAATATGTGCTTATTT [XGTACX_site7285] | 9.71
ATGTATTTATATACTTGTACGTAAGATGTATTATAT [XGTACX_site908] | 9.8
TAAAAAAAAAACATCTGTACCAATTTTTATGTATAA [XGTACX_site5196] | 9.49
AATAAAAGTTCACCTGTACACACATATATATATGTA [CACACA_site8500] | 9.91
GGTTATAACGCACATGCACACGTAAATAAATATTAT [CACACA_site9277] | 9.81
TAAATTTTAATAAATACACACAAATTTTAATTCTAT [CACACA_site6039] | 9.59
ACATGCAACCATTCGGGTACAGAAATAAATATATAC [XGTACX_site4174] | 9.66
CTTTTTCGCATGAAAAGTACATGAAATATATTACAT [XGTACX_site8971] | 9.37
AATAACTTTTTAAACACACACACATATAAATAAATA [CACACA_site6196] | 10.4
GGAGACTTTGTACAAACACACACATGAACACAATAT [CACACA_site8376] | 10
TAATTTAAAAATGAACATATATATGTATGTAAATAT [TGCATGCA_negctrl_site135] | 9.8
ATGTATATATTTATGTGTACTTAAATTTTTTTTTGT [XGTACX_site8179] | 9.67
TTTTAATATATAGAGTAACAAATTTGTCTATTAATA [CACACA_negctrl_site1495] | 9.51
TCTTCACCACGTGGAAGTACATAAAAAGATACACAA [XGTACX_site4747] | 9.55
CATCTTAAATAAGAACGTACATTTTTTTTGATGAGA [XGTACX_site3462] | 9.41
AAGACAAAACAAAGAAGTACATATATATATATATAT [XGTACX_site4067] | 9.74
AATAATATTAACACACGTACAAAAGCAAACAACCAA [XGTACX_site7410] | 10.6
ATACATTCTAATACGTGTACATATATATATATATAT [XGTACX_site1881] | 9.76
TTTATATTATTATATCTTATTAATTATTTATCATTT [TGCATGCA_negctrl_site73] | 9.74
